The results in this text go back to PubChem BioAssay AID2060361 (Molecular Pharmacology Branch, DTP, NCI, 2025).

Broadly, the viability, T/C is the result in the treated group divided by that in the control group, in per cent.

This assay relates to 463943-066-T-J2-PDC tumor spheroids with HUVEC/MSC, viability. Kind of assay: Anticancer human tumor 463943-066-T-J2-PDC patient-derived colon adenocarcinoma cell line growth inhibition [TAK]. The conditions noted are these: stronger effect = lower value. An excerpt:
Combinatorial screen of targeted agents with TAK-243 and ipatasertib in multi-cell type tumor spheroids
A high-throughput screen of multi-cell type tumor spheroids was designed to identify active combinations of targeted small molecules and TAK-243 or ipatasertib. Complex spheroids include a stromal component modeled by human endothelial cells (HUVEC) and fibroblasts modeled by human mesenchymal stem cells (MSCs). The concentration ranges selected for each drug and investigational agent were based upon clinically achievable concentrations if the clinical Cmax of the agent was known.
Compounds. The drugs and investigational agents: TAK-243 (785004), ipatasertib (767898), everolimus (733504), selumetinib (741078), bortezomib (756655), trametinib (758246), ixazomib (758254), vemurafenib (761431), dabrafenib (764134), sapanisertib (764658), alpelisib (765974), and copanlisib (816437), were obtained from the National Cancer Institute (NCI) Developmental Therapeutics Program Chemical Repository. The FDA-approved anticancer drug set is available from the NCI Developmental Therapeutics Program. […] The stock solutions were prepared in dimethyl sulfoxide (DMSO, Sigma-Aldrich, St. Louis, MO, cat. D2650) at 800-fold the tested concentration and stored at -70 degrees C prior to their use. All drugs and investigational agents were tested over a range starting from a high concentration at or near the clinical Cmax and decreasing in half-log increments. If the clinical Cmax for an agent had not been determined, the highest concentration tested was 10 microM.
NCI60 Cell Culture. NCI60 cell lines were obtained from the NCI Developmental Therapeutics Program Tumor Repository. […] The optimal seeding densities for each of the cell lines at each time point assessed were determined prior to performing the concentration response studies. […]
For the pre-screen, cell seeding densities were determined from a titration spanning the range from 5,000 to 313 cells per well. […]

For part of its entries the source gives two or more results. Only these are listed. The source may hold further records. Results that share an entry are repeated measurements (runs, samples, wells, individuals or studies). Marks such as (2×) count equal records among those shown.
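Also: spheroids exposed to drugs for seven days; 100% = DMSO vehicle control wells.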

For `CC(C)NCC(C(=O)N1CCN(c2ncnc3c2C(C)CC3O)CC1)c1ccc(Cl)cc1` (stereo not drawn), the viability, T/C reads like this: (compound alone 0.949 µM) 76.7, 103, 85.4, 111, 96.3, 92.3, 88.5, 92.5, 88.9, 92.6%; (compound alone 9.49 µM) 77.2, 99.9, 88.3, 86, 98.1, 92.6, 109, 94, 93.3, 94.7%; (compound alone 30 µM) 76.8, 103, 88.3, 91.8, 98.2, 101 (2×), 94.6, 99.6, 90.6%.
